From the supplement of paper PMC7826260
The other results are listed elsewhere or left out. Cleavage of a single-stranded DNA pool by Rep nickase domains was read by sequencing at 3 µM enzyme and 37 °C for 1 h; the strands have 90 letters, of which the middle is given. The score is log2 (uncut reads / reads without enzyme); more negative means more cut, near 0 not cut, and no call is made. Reads are scaled to the total; uncut strands gain when others are lost, and binding without cutting may add a little.

How the values were obtained:
Experiment in all cases: uncleaved DNA left, log2 of reads against the no-enzyme library (log2 ratio); higher = less cleavage (more negative = more Rep cleavage of the k-mer); sequences stand for … in CTCGTCCG…ACCGGAGA
[1] = system: T1, Rep nickase domain of Muscovy duck circovirus
T1 sequence (protein, residues 1-111, tag omitted): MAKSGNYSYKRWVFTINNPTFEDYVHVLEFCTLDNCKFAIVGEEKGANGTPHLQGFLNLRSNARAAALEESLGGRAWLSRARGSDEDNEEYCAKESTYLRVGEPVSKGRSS
Procedure: (§1)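 A pool of 90-nt single-stranded DNAs with seven random bases just before the constant AC of the nick site (name = the seven bases) was cut by 3 µM recombinant His6-SUMO-tagged Rep nickase domain (300 nM DNA, 50 mM HEPES pH 8.0, 50 mM NaCl, 1 mM MnCl2, 1 h, 37 °C, three replicates). Uncut DNA was amplified and sequenced.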

[2] = system: T2, Rep nickase domain of banana bunchy top virus
T2 sequence (protein, residues 1-94, tag omitted): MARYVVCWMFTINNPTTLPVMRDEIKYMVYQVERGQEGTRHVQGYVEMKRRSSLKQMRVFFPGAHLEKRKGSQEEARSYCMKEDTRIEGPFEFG
Procedure: as §1

[3] = system: T3, Rep nickase domain of cabbage leaf curl virus
T3 sequence (protein, residues 1-116, tag omitted): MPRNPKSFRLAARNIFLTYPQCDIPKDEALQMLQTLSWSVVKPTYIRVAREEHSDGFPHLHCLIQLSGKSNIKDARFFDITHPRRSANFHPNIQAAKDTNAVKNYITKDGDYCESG
Procedure: as §1

[4] = system: T4, Rep nickase domain of chickpea chlorotic dwarf virus
T4 sequence (protein, residues 1-124, tag omitted): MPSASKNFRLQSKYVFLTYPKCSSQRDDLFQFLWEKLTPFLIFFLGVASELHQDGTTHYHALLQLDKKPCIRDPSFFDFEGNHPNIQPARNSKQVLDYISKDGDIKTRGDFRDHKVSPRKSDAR
Procedure: as §1

[5] = system: T5, Rep nickase domain of faba bean necrotic yellows virus
T5 sequence (protein, residues 1-98, tag omitted): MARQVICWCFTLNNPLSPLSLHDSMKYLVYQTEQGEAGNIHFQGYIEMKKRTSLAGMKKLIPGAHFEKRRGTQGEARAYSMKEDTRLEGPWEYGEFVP
Procedure: as §1

[6] = system: T6, Rep nickase domain of maize striate mosaic virus
T6 sequence (protein, residues 1-117, tag omitted): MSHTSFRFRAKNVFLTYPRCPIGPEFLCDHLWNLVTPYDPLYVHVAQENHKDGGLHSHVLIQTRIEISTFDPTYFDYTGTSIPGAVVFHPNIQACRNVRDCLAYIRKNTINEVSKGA
Procedure: as §1

[7] = system: T7, Rep nickase domain of porcine circovirus 2
T7 sequence (protein, residues 2-116, tag omitted): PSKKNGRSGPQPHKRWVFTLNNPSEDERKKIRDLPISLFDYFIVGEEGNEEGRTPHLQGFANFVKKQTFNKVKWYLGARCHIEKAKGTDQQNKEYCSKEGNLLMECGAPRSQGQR
Procedure: as §1

[8] = system: T8, Rep nickase domain of tomato golden mosaic virus
T8 sequence (protein, residues 1-124, tag omitted): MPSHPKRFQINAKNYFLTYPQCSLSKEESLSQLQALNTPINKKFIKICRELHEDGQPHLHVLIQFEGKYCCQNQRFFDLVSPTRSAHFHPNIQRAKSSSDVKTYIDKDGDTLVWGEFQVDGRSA
Procedure: as §1

[9] = system: T9, Rep nickase domain of tomato yellow leaf curl virus
T9 sequence (protein, residues 1-136, tag omitted): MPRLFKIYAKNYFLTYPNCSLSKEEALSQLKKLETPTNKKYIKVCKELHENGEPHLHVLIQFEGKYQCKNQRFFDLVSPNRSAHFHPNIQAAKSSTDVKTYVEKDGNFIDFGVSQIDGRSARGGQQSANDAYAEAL
Procedure: as §1

[10] = system: T10, Rep nickase domain of wheat dwarf virus
T10 sequence (protein, residues 1-137, tag omitted): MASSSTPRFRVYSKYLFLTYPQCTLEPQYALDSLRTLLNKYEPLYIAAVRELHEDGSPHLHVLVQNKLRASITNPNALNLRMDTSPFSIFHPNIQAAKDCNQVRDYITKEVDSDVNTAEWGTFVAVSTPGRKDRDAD
Procedure: as §1

Sequence | uncleaved DNA left (log2) [1] | uncleaved DNA left (log2) [2] | uncleaved DNA left (log2) [3] | uncleaved DNA left (log2) [4] | uncleaved DNA left (log2) [5] | uncleaved DNA left (log2) [6] | uncleaved DNA left (log2) [7] | uncleaved DNA left (log2) [8] | uncleaved DNA left (log2) [9] | uncleaved DNA left (log2) [10]
GGCTGCC | -0.015 | -0.198 | 0.137 | 0.766 | -0.1 | 0.814 | 0.0853 | -0.084 | -0.107 | -0.0024
CTCTTGG | 0.106 | 0.0679 | -0.381 | -0.287 | -0.0287 | -0.916 | 0.214 | 0.0366 | 0.0421 | 0.0481
TAGCTCG | -0.0331 | -0.0252 | -0.568 | -0.661 | 0.0197 | -1.09 | -0.00177 | -0.043 | -0.143 | -0.195
GATACAA | -0.0126 | 0.0432 | 0.256 | 0.648 | -9.76e-05 | 0.719 | 0.117 | -0.0526 | 0.0625 | 0.174
TGCGGTT | -0.168 | -0.268 | -0.333 | -0.709 | -0.16 | -0.553 | -0.265 | -0.179 | -0.139 | -0.169
CTTTACT | -3.45 | -1.72 | -0.577 | -2.74 | -0.0837 | -0.982 | -3.74 | -0.0648 | 0.025 | -0.196
TAGAGCA | 0.216 | 0.0398 | -0.0306 | -1.16 | 0.165 | -0.606 | -2.29 | 0.226 | 0.209 | 0.0903
ACCACGA | 0.0206 | -0.113 | -0.286 | -0.403 | -0.0674 | -1.04 | -0.101 | -0.103 | -0.249 | -0.28
GACATTT | 0.023 | 0.00275 | 0.711 | 1.17 | 0.029 | 1.94 | -0.277 | -0.139 | 0.0355 | 0.141
AGCTCCA | -0.0641 | -0.0487 | 0.0727 | -0.0928 | -0.0533 | 0.489 | -0.753 | -0.117 | 0.0662 | 0.0203
ATGGGCA | -0.0545 | -0.193 | 0.179 | 0.5 | -0.126 | 0.175 | -0.0433 | -0.0191 | -0.146 | -0.0359
GTGGGAA | 0.0881 | 0.0343 | 0.571 | 1.26 | 0.0135 | 2.02 | 0.0259 | -0.0837 | 0.0845 | 0.152
ATTCCGA | -0.00146 | -0.12 | 0.323 | 0.673 | 0.0333 | 0.134 | 0.0539 | -0.147 | -0.0425 | -0.0148
ACCAAGT | -0.0239 | -0.0499 | -0.0573 | -0.443 | 0.0655 | -1.09 | 0.0297 | -0.00387 | -0.00983 | -0.0111
TAGGGGC | 0.168 | 0.127 | 0.814 | 1.33 | 0.105 | 1.75 | 0.331 | 0.161 | -0.0184 | 0.178
AGCTAAG | 0.0547 | 0.015 | -0.652 | -0.152 | -0.0192 | -0.988 | 0.175 | 0.00281 | 0.0688 | 0.0148
CTGTAGG | -0.0145 | -0.0801 | 0.051 | 0.761 | -0.0721 | 0.00788 | 0.0118 | 0.00479 | -0.201 | -0.141
AGACAAT | 0.0513 | -0.0475 | 0.546 | 1.18 | -0.0929 | 1.64 | -0.139 | 0.0472 | -0.0429 | 0.156
CGCGGAA | -0.0494 | -0.0727 | -0.149 | 0.228 | -0.0313 | -0.27 | 0.104 | -0.0508 | -0.00675 | -0.0759
GGATTCA | 0.0624 | 0.0636 | 0.499 | 1.14 | 0.0109 | 1.8 | 0.112 | 0.0183 | 0.132 | 0.222
CAGGGTA | 0.113 | 0.107 | 0.343 | 0.975 | 0.0984 | 1.47 | 0.154 | 0.141 | -0.0865 | 0.103
ACTCACA | -0.139 | -0.0223 | -0.198 | -1.3 | -0.0866 | -0.737 | -0.122 | 0.0396 | -0.0911 | 0.0629
GTACGAT | 0.0694 | 0.0578 | 0.28 | 0.63 | 0.0207 | 1.63 | 0.216 | 0.137 | 0.182 | 0.0626
TAGAGAC | -0.115 | -0.038 | 0.366 | 0.926 | -0.00803 | 0.857 | -0.0305 | -0.121 | -0.0258 | -0.00614
AGGTGAA | 0.0522 | 0.112 | 0.295 | 0.774 | -0.0445 | 1.35 | 0.00935 | 0.0193 | -0.0159 | -0.0215
ATGGATA | 0.114 | 0.00815 | 0.258 | 1.32 | 0.124 | 1.45 | 0.213 | 0.147 | -0.076 | -0.0545
GGGAGAC | 0.0367 | 0.0145 | 0.793 | 1.97 | -0.126 | 2.2 | 0.151 | -0.0335 | 0.041 | 0.103
CGGGTTC | 0.0157 | -0.0249 | 0.426 | 0.527 | 0.019 | 1.23 | 0.18 | -0.0115 | 0.0587 | 0.137
CGGTGAG | -0.0184 | -0.0627 | -0.779 | -0.154 | -0.0624 | -0.614 | 0.083 | -0.112 | 0.148 | -0.0445
TCTTATC | -0.0454 | 0.0668 | 0.401 | 0.683 | 0.0665 | 0.32 | -0.0518 | -0.0579 | 0.0882 | 0.127
